The RNAGym collection of RNA variant scans (doi:10.7554/elife.90254)
The source gives no read counts; variants with many changes may rest on few reads.

B1: OR4K15 (parent)
chain: GUUAACGGUCAUAGGCCAUGGAAACUAGGAGCACCAUUUCGCUGCCAGUGAAGAAAUGAACAAAGAAAAUCUGGGCCAGGCAGGCAUCAAAAGAAAUAGUCUUGCGCUCAACCAGAAAGUCUGUAAUCAUUUUAAGGGUA

Variants of: B1
Test: self-cleavage, relative activity (ratio to wild type); higher = more cleavage; in vitro, sequencing; the parent is a self-cleaving ribozyme

Row | Variant | self-cleavage
1 | GUUAACGGUCGUAGGCCAUGGAAACUAGGAGCACCAUUUCGCUGCCAGUGAAGAAAUGAACAAAGAAAAUCUGGGCCAGGCAGGCGUCUAAAGAAAUAGUCUUGCGCUCAACCAGAAAGUCUGUAAUCAUUUUAAGGGUA [A11G A86G A89U] | 1.63
2 | GUUAACGGUCGUAGGCCAUGGAAACUAGGAGCACCAUUUCGCUGCCAGUGAAGAAAUGAACAAAGAAAAUCUGGGCCAGGCAGGCAUCAAAGGAAAUAGUCUUGCGCUCGACCAGAAAGUCUGUAAUCAUUUUAAGGGUA [A11G A92G A110G] | 0.05
3 | GUUAACGGUCGUAGGCCAUGGAAACUAGGAGCACCAUUUCGCUGCCAGUGAAGAAAUGAACAAAGGAAAUCUGGGCCAGGCAGGCAUCAAAAGGAAUAGUCUUGCGCUCAACCAGAAAGUCUGUAAUCAUUUUAAGGGUA [A11G A66G A94G] | 0.61
4 | GUUAACGGUCGUAGGCCAUGGAAACUAGGAGCACCAUUUCGCUGCCAGUGAAGAAAUGAACAAAGGAAAUCUGGGCCGGGCAGGCAUCAAAAGAAAUAGUCUUGCGCUCAACCAGAAAGUCUGUAAUCAUUUUAAGGGUA [A11G A66G A78G] | 0.2
5 | GUUAACGGUCGUAGGCCAUGGAAACUAGGAGCACCAUUUCGCUGCCAGUGAAGAAAUGAACAAAGAAAAUCUGGGCCAGGCGGGCAUCAAAAGAAAUAGUCUUGCGAUCAACCAGAAAGUCUGUAAUCAUUUUAAGGGUA [A11G A82G C107A] | 0.11
6 | GUUAACGGUCGUAGGCCAUGGAAACUAGGAGCACCAUUUCGCUGCCAGUGAAGAAAUGAACAAAGAAAAUCUGGGCCAGGCGGGCAUCAAAAGAAAUAGUCUUGCGCUCAACCAGAGAGUCUGUAAUCAUUUUAAGGGUA [A11G A82G A117G] | 0.33
7 | GUUAACGGUCGUAGGCCAUGGAAACUAGGAGCACCAUUUCGCUGCCAGUGAAGAAAUGAACAAGGAAAAUCUGGGCCAGGCAGGCAUCAAAAGAAAUAGUCUUGCGCUCAGCCAGAAAGUCUGUAAUCAUUUUAAGGGUA [A11G A64G A111G] | 0.06
8 | GUUAACGGUCGUAGGCCAUGGAAACUAGGAGCACCAUUUCGCUGCCAGUGAAGAAAUGAACAAAGUAAAUCUGGGCCAGGCAGGCAUCAAAAGAAAUAGUCUUGCGCUCAACCAGAAAGUCUGUAGUCAUUUUAAGGGUA [A11G A66U A126G] | 0.47
9 | GUUAACGGUCGUAGGCCAUGGAAACUAGGAGCACCAUUUCGCUGCCAGUGAAGAAAUGAACAAAGAUAAUCCGGGCCAGGCAGGCAUCAAAAGAGACAGUCUUGCGCUCAACCAGGAAGUCUGUAAUCAUUUUAAGGGUA [A11G A67U U72C A95G U97C A116G] | 0.04
10 | GUUAACGGUCGUAGGCCAUGGAAACUAGGAGCACCAUUUCGCUGCCAGUGAAGAAAUGAACAAAGAAAAUAUGGGCCAGGCAGGCAUCAAAAGAAAUAGUCUUGCGCUCAACCAGAAAGUCUGUAACCAUUUUAAGGGUA [A11G C71A U127C] | 0.15
11 | GUUAACGGUCGUAGGCCAUGGAAACUAGGAGCACCAUUUCGCUGCCAGUGAAGAAAUGAACAAAGAAGAUCUGGGCCAGGCAGGCAUCAAAAGAAAUAGUCUUGGGCUCAACCAGAAAGUCUGUAAUCAUUUUAAGGGUA [A11G A68G C105G] | 0.12
12 | GUUAACGGUCGUAGGCCAUGGAAACUAGGAGCACCAUUUCGCUGCCAGUGAAGAAAUGAACAAAGAAGAUCUGGGCCAGGCAGGCAUCAAAAGAAAUAGUCUUGCGCUCAACCAGAAAGUCUGUAACCAUUUUAAGGGUA [A11G A68G U127C] | 0.13
13 | GUUAACGGUCGUAGGCCAUGGAAACUAGGAGCACCAUUUCGCUGCCAGUGAAGAAAUGAACAAAGAAAAUCUGGGCCAGGCUGGCAUCAAAAGAGAUAGUCUUGCGCUCAACCAGAAAGUCUGUAAUCAUUUUAAGGGUA [A11G A82U A95G] | 0.37
14 | GUUAACGGUCGUAGGCCAUGGAAACUAGGAGCACCAUUUCGCUGCCAGUGAAGAAAUGAACAAAGAAAAUCUGGGCCAGGCUGGCAUCAAAAGAAAUAGUCUUGCGCUCAACCAGAAAGUCUGUAACCAUUUUAAGGGUA [A11G A82U U127C] | 0.06
15 | GUUAACGGUCGUAGGCCAUGGAAACUAGGAGCACCAUUUCGCUGCCAGUGAAGAAAUGAACAAGGAAAAUCUGGGCCAGGCAGGCACCAAAAGAAAUAGUCUUGCGCUCUACCAGAAAGUCUGUAAUCAUUUUAAGGGUA [A11G A64G U87C A110U] | 0.98
16 | GUUAACGGUCGUAGGCCAUGGAAACUAGGAGCACCAUUUCGCUGCCAGUGAAGAAAUGAACAAAGAAAAUCUGGGCCAGGCAGGCGUCAAAAGAAAUAGUCUUGCGCUCAACCAGAAGGUCUGUACACAUUUUAAGGGUA [A11G A86G A118G A126C U127A] | 0.49
17 | GUUAACGGUCGUAGGCCAUGGAAACUAGGAGCACCAUUUCGCUGCCAGUGAAGAAAUGAACAAAGAAAAUCUGGGCCAGGCAGGCAUCAAGAGAAGUAGUCUUGCGCUCAACCAGAAAGUCUGUGAUCAUUUUAAGGGUA [A11G A91G A96G A125G] | 0.56
18 | GUUAACGGUCGUAGGCCAUGGAAACUAGGAGCACCAUUUCGCUGCCAGUGAAGAAAUGAACAAAGAAAAUCUGGGCCAGGCAGGCAUCAAAAGCAAGAGUCUUGCGCACAACCAGAAAGUCUGUAAUCAUUUUAAGGGUA [A11G A94C U97G U108A] | 0.04
19 | GUUAACGGUCGUAGGCCAUGGAAACUAGGAGCACCAUUUCGAUGCCAGUGAAGAAAUGAACAAAGAAAAACUGGGCCAGGCAGGCAUCAAAAGAAAUAGUCUUGCGCUCAACCAGAAAGUCUGUAAUCAUUUUAAGGGUA [A11G C42A U70A] | 0.4
20 | GUUAACGGUCGUAGGCCAUGGAAACUAGGAGCACCAUUUCGCUGCCAGUGAAGAAAUGAACAAAGAAAAUCUGGGCCAGGCAGGCAUAAAAAGAAAUAGUCUUGCGCUCAACCAGAAAGUCUGUAAUCAUUUUAAGGGUG [A11G C88A A140G] | 1.4
21 | GUUAACGGUCGUAGGGCAUGGAGACUAGGAGCACCAUUUCGCUGCCAGUGAAGAAGUGAACAAAGAAAAUCUGGGCCAGGCAGGCAUCAAAAGAAAUAGUCUUGCGCUCAACCAGAAAGUCUGUAAUCAUUUUAAGGGUA [A11G C16G A23G A56G] | 0.81
